{"source": "PubChem BioAssay AID192", "about": "(DTP/NCI, 2004)", "system": "BDF1 mice, B16 melanoma ip, median survival T/C", "assay": "NCI In Vivo Anticancer Drug Screen. Data for tumor model B16 Melanoma (intraperitoneal) in B6D2F1 (BDF1) mice", "details": "endpoint: median survival time, higher = longer survival", "description": "The antitumor activity of compounds was measured in mice bearing transplantable tumors. Survival or tumor size were measured and the results are expressed as the measurement made in the treated group (T) divided by the measurement made in the vehicle treated control group (C). The tumor model used in this assay is B16 Melanoma (intraperitoneal) in B6D2F1 (BDF1) mice", "note": "Inconclusive results and toxic doses are left out. For part of its entries the source gives two or more results. This is not the full list of results. The source may hold further records. Values given together differ for a reason that is not stated; dose, time, organism, isomer or construct need not be as stated for each record. Square brackets hold non-standard residues; d marks the D form. Peptide text beside a SMILES is read from it. ξ: configuration not given here. Ac5c = NC1(C(=O)O)CCCC1; ξS = NC(CO)C(=O)O"}
{"smiles": "CC1OC(OC2CC(O)(C(=O)CO)Cc3c(O)c4c(c(O)c32)C(=O)c2ccccc2C4=O)CC(N)C1O", "note": "(stereo not drawn)", "values": [{"measurement": "T/C", "setting": "dose: 3.0 mg/kg/injection, schedule: Q01DX001 (ip), vehicle: water", "result": "98 % of control and 307 % of control"}]}
{"smiles": "OC(C1CO1)C(O)C1CO1", "note": "(stereo not drawn)", "values": [{"measurement": "T/C", "setting": "dose: 2.0 mg/kg/injection, schedule: Q04DX003 (ip), vehicle: saline", "result": "119 % of control and 156 % of control"}, {"measurement": "T/C", "setting": "dose: 4.0 mg/kg/injection, schedule: Q04DX003 (ip), vehicle: saline", "result": "123 % of control and 195 % of control"}]}
{"smiles": "COc1cccc2c1C(=O)c1c(O)c3c(c(O)c1C2=O)C[C@H](O)C[C@@H]3OC1CC(N)C(O)C(C)O1", "note": "(stereo partly drawn)", "values": [{"measurement": "T/C", "setting": "dose: 25.0 mg/kg/injection, schedule: Q01DX001 (ip), vehicle: water", "result": "115 % of control, 168 % of control, 189 % of control"}]}
{"smiles": "O=C1NC2(CCCCC2)C(=O)N1CCN(CCCl)CCCl", "values": [{"measurement": "T/C", "setting": "dose: 1.5 mg/kg/injection, schedule: Q01DX009 (ip), vehicle: saline with Tween-80", "result": "109 % of control and 154 % of control"}, {"measurement": "T/C", "setting": "dose: 3.0 mg/kg/injection, schedule: Q01DX009 (ip), vehicle: saline with Tween-80", "result": "118 % of control and 186 % of control"}]}
{"smiles": "O=P1(N(CCCl)CCCl)NCCCO1", "note": "(stereo not drawn)", "values": [{"measurement": "T/C", "setting": "dose: 50.0 mg/kg/injection, schedule: Q01DX009 (ip), vehicle: saline with Tween-80", "result": "119 % of control and 160 % of control"}]}
{"smiles": "NC(CO)C(=O)NC1(C(=O)O)CCCC1", "note": "(stereo not drawn) (H-[ξS]-[Ac5c]-OH)", "values": [{"measurement": "T/C", "setting": "dose: 200.0 mg/kg/injection, schedule: Q04DX003 (ip), vehicle: saline with Tween-80", "result": "103 % of control and 150 % of control"}]}
{"smiles": "CC[N+](CC)(CC)CC", "values": [{"measurement": "T/C", "setting": "dose: 25.0 mg/kg/injection, schedule: Q01DX009 (ip), vehicle: saline", "result": "112 % of control and 151 % of control"}]}
{"smiles": "COc1cccc2c1C(=O)c1c(O)c3c(c(O)c1C2=O)C[C@@](O)(C(=O)COC(=O)c1cccnc1)C[C@@H]3OC1CC(N)C(O)C(C)O1", "note": "(stereo partly drawn)", "values": [{"measurement": "T/C", "setting": "dose: 1.5 mg/kg/injection, schedule: Q01DX001 (ip), vehicle: water", "result": "101 % of control, 158 % of control, 169 % of control"}]}
{"smiles": "CO[C@H]1C[C@](C)(O)Cc2cc3c(c(O)c21)C(=O)c1c(O)cc2c(c1C3=O)O[C@@H]1O[C@@]2(C)[C@H](O)[C@@H](N(C)C)[C@@H]1O", "values": [{"measurement": "T/C", "setting": "dose: 50.0 mg/kg/injection, schedule: Q01DX001 (ip), vehicle: water", "result": "112 % of control and 151 % of control"}, {"measurement": "T/C", "setting": "dose: 100.0 mg/kg/injection, schedule: Q01DX001 (ip), vehicle: water", "result": "110 % of control and 159 % of control"}, {"measurement": "T/C", "setting": "dose: 200.0 mg/kg/injection, schedule: Q01DX001 (ip), vehicle: water", "result": "114 % of control and 151 % of control"}]}
